Experimental findings from the RNAGym collection of RNA variant scans (doi:10.7554/elife.90254) are described below.

The source gives no read counts; variants with many changes may rest on few reads.

The chains are these.
B1: LINE1-mini (parent)
chain: GGCAGAGCUCAACACAGCGUGGCAAAGUGGCUGUGGCUAGACUGCC

The variants in the data set derive from B1. Description: self-cleavage, relative activity (ratio to wild type); higher = more cleavage; in vitro, sequencing; the parent is a self-cleaving ribozyme.
Regarding GUCAGCGCUCCACACAGCGUGGCAAAGUGGCUGUGGCUAGACUGCC, the self-cleavage amounted to 0.02.
Take GUCGGAGCUCUAAACAACCUGGAGAAGUGGCUGUGGCUAGACUGCC: the self-cleavage came out at 0.05.
For the variant GUCAGAGCUCAACACAGCGUGGCGAACUGGGUGUGGCUAGACUGCC, the self-cleavage is 0.02.
GUCAGAGCUCAGCACAGCGUGACAAAGUGCCUGUGGCUAGACUACC: the self-cleavage was determined as 0.01.
The value for GUCAGAGCUCAACACCGAGUGGCAAAGUGGCUGUGGCUAGACUGCC was 0.04; that for GUCAGCGCUCAAGACAGCGUGGCAAAGUGGCUGUGGCUAGACUGCC was 0.05.
GUCUACGCUCAACACAGCGUGGCAAAGUGGCUGUGCCUAGACUGCC: the self-cleavage is 0.03.
As for GUCUGAGCUCAACAUAGCGUGGCAAAGUAGCUGUGGCUAGACUGCC, the self-cleavage was 0.05.
GUCUGAUCUCAACACAGCGGGGCAAAUUGGCUGUGGCUAGACUCCC: the self-cleavage stood at 0.22.
For GUAAGAGCUCAACACAGCGUGGCAAAGUGGCUGUGGCUAGACUGCG, the self-cleavage amounted to 0.09.
Take GUCAGUGCUCAACCCAUCGUGGCAAAGUGGCUGUCGCUAGACUGCC: the self-cleavage came out at 0.02.
With GUCAGCGCUCAACAAAGCGUGGCAAAGUGGCUGUGACUAGACUGCC, the self-cleavage stood at 0.
As for GUCAGAGCUCAACUCACCGUGGCAAAGUGGCUGUGGCUAGCCUGCC, the self-cleavage is 0.
As for GUCAGAGCUCAACUCAGAGUGGCAAAGUGGCUGUUACUAGCCUGCC, the self-cleavage worked out at 0.
Regarding GUAAGAGCUGAACACAGCGUGGCAAAGUGGCUGUGGCUAGACUGCC, the self-cleavage is 0.04.
The value for GUCAGUGCGCAACACAGCGUGGCAAAGUGGCUGUGGCUAGGCUGCC was 0.06; that for GUCAGAGCUCAACGCAGCGUGGAAAAGUGGCUGUGGCUAGACUGCC was 0.07.
The value for GUCGUAGCUCAACACAGCGUGGCAAAAUGGUUGUGGCCAGACUGUC was 0.03.
With GUCAGUGCUAAAAACACCGUGGCAAAGUGGUUUUGGCUAGACUGCC, the self-cleavage was 0.
Take GUAAGAGCUCAACACAGCGUGGCACAGUGGCUGGGGCUUGACUGCC: the self-cleavage came to 0.03.
On to GUCAGAGCUCAACUCAGCGUGGCAAAGUGGGUGUGGCUAGACUGCC, for which the self-cleavage was determined as 0.01.
Regarding GUCAGAGCUCAACUCAGCGUGGCAAAGUGGAUGUGGCUAGACUGCC, the self-cleavage worked out at 0.01.
Turning to GUGAGAGCUCAACACAGCGUGGUAUAGCGGAUGUGGCUAGACUGCC, the self-cleavage stood at 0.09.
For GUAAGAGCUCAACAAAGCGUGGCAAAGUGGAUGUGGUUAAACUGCC, the self-cleavage worked out at 0.17.
In the case of GUCGGAUCUCAACACAGCCUGGCAAAGUUGCUGUGGCUAGACUGCC, the self-cleavage was found to be 0.04.
GUCAGAGCUCAACACAGCGUGGCCAAGGGGCUGUGGCUAGACUGCC: the self-cleavage stood at 0.15.
In the case of GUCAGAGCUCUAAACAGCGUGGCAAAGUGGCUGUCACUAGACUGCC, the self-cleavage came out at 0.02.
For GUCAGAGCUCACCACAGCGUGGCGAAGGGGCUGUGGCUAGACUGCC, the self-cleavage amounted to 0.01.
Turning to GUCAGAGCUCAACCCAGCUUGGCAACGUGGCUGUGGCUAGACUGCC, the self-cleavage stood at 0.01.
For GUCAGAGCUCGACACAGUGUGGCAAAGUGGCUUUGGCUAGACUGCC the value was 0.02; for GUCAGAGCUCAACACGGCGUGGCAAAGUGGCUGUGCCGAGACUGCC, 0.08; for GUCAGAGCUCAUCACAGCGUGGCAAAGUUGCUGUGGCUAGACUGCC, 0.04.
For GUCAGGGCUAAACACAGCGUGGAAAACUGACUGUGGCUAGAAUGCC the value was 0; for GUCAGAGCUCAACACGGCGUGGCAAAGUGGCUGUGGAUAGACAGCC, 0; for GUCAGAGCUCAACACCGCGUGGCCAAGUGGCUGUGGCUAGACUGCC, 0.03.
GUCAGAGCUCAACACGGCGUUGCAAAGUCGCUGUGGCUAGACUGCC: the self-cleavage turned out to be 0.14.
For GUCAGAGCUCAACUCAGCGUGGCAAAGUGGCUGUGGCUAGACUACC the value was 0.08; for GUUAGUGCUCAACACAGCGUGGCAAAGUGGCUGUGGCUAGACUGCC, 0.14; for GUAGGAGCUCAACACAGCGUGGUAAAGUGGUUGCGCCUAGACUGCC, 0.02.
On to GUCAGAGCUCAACACUGCUUGGAAAGGUGGCUGUGGGUAGACUGCC, for which the self-cleavage worked out at 0.19.
On to GUCAGAGCUCAACACAGCGUGGCAAAGUGGCUGUGGCUAGUCUCCC, for which the self-cleavage turned out to be 0.09.
As for GUAGGAGCUCAACACACCGUGGCAAAGUGGCUGUGGCUAGACUGGC, the self-cleavage came out at 0.49.
For the variant GUCAGAGCUCAACACAGCGUGGCCAGGUGGCUCUGGCUAGACUGCC, the self-cleavage was 0.02.
For GUCAGAGCUCUACAGAGCGUGGCCAAUUGGCUGUGGCUAGACUGCC the value was 0.01.
As to GUCAGAGCUCAACCCAUCGUGUAAAAGUGUCUGUGGCUAGACUGCC, the self-cleavage was determined as 0.01.
For GUCAGAGCUCAACACAGCGUGGCAAUGUGGCUCUGGCUAGACUGCC, the self-cleavage was 0.01.
The value for GUAAGCGCUCAACAUAUCGUGGCAAAGUGGUUGUGGCUAGACUGCC was 0.08; that for GUCAGAGCUCACCACAGCGUGACAAAGUUGCUGUGGCUAGACUGCC was 0.02; that for GUCAGAGCUCAACUCAGCGUGGCAGAGUGGCUGUUGCUAGACUGCC was 0.08.
As for GUCAGAGCUCUACACAGCGUGGCAAAGUAGCUGUGGCUAGACUGCC, the self-cleavage was found to be 0.02.
For the variant GUAAGAGCUCAACACAACGUGGCAAAGUGGCUGUGGCUAGACUGCC, the self-cleavage worked out at 0.16.
GUCAGAGCUCAACCCAGCGUGCCAAAGUGGCUGUGGCUAGACUGCU: the self-cleavage worked out at 0.06.
Take GUGAGAGCAGAACACCGCGUGGCAAAGUGGCUGUGGCUAGACUGCC: the self-cleavage amounted to 0.01.
As for GUCAGAGCUCAACACCGCGUGGCAAAGUGGCUGUGGCUAUACUGCC, the self-cleavage worked out at 0.03.
For GUAAGAGUUCAACACAGCGUGGCAAAGUGGCUGUGGCUAGACUGCC the value was 0.26; for GUAAGAGCUCAACACAUCGUGGCAAAGUGGCUGUGGGUAGACUGCC, 0.06.
The value for GUCAGAGCUCAUCACAGCGUGGCAAAGUGGCUGAGGCUAGACUGCC was 0.02; that for GUCAGUGCUCAACACAGCGUGGCAAAGUGGCUAUGGCUAGACUGCC was 0.07; that for GUCAGAGCUCAACACUGCGUAGCAAAGUGGCUGUGGCUAGACUGCC was 0.07.
Turning to GUCAGAGCUCAACACAGCGUGGCAAUGUGGCUGUGGCUAGACGACC, the self-cleavage worked out at 0.03.
With GUCAGAGCUCAACACCGCGUGUCAAAGUGGCUGAGUGUAGACUGCC, the self-cleavage worked out at 0.02.
Consider GUCAGAGCUCAACGGAGCAAGGCAAACUGGCUGUGGCUAGACUGCC, for which the self-cleavage came out at 0.01.
For the variant GUCAGAGCUCCAAACAGCGUGGCAAAGUGGCUGUGGCUAGACUGCC, the self-cleavage was 0.03.
In the case of GUCAGAGCUCAUCUCAACGUGGCAAAGUGGCUGUGGCUAGACUUCC, the self-cleavage was determined as 0.01.
GUCAGAGCUCAACACAGCGUGGCGAAGUGGCUGUGACUAAACAGUC: the self-cleavage stood at 0.02.
Turning to GUCAGCUCUCAACACAGCGUGGCAAAGUGGCUGUGGCUAGACUGCC, the self-cleavage came to 0.17.
For GUCAGAGCUCAGCACAGCGUGGCAAAGUGGCUGUGGCUAGACAGCC the value was 0.07; for GUCAGAGCUCAACUCAGCGUGGCCAAGUGGCUGUGGCUAGACUGCC, 0.02.
Consider GUCAGAGCUCAACACAGCGUGGCAACGUUGGUGUGGCUAGACUGCC, for which the self-cleavage came out at 0.03.
Regarding GUAAGAUCUCAACACAGCGUGUCUUAGUGGCUGUGGCUAGACUGCC, the self-cleavage came to 0.08.
Consider GUCAGUACUCAACCCCGCUUGGCAAUGUGGCAGUGGCUAUACUGCC, for which the self-cleavage was determined as 0.
Regarding GUCAGAGCUCAACUCAGCGUGGCAAAGUGGCUGUGGCUAGACUGGC, the self-cleavage is 0.26.
Turning to GUCGGAGCUCAACACAUCGUCACAAAGGGGCUUUGGCUAUACGGCC, the self-cleavage is 0.
For GUCAGAGCUCAACACGGCGUGGCAAAGUUGCUGUGGCUAGACUGCC, the self-cleavage was 0.24.
In the case of GUCAGAGCUCAACUCAGCGUGACAAAGUGGCUGUGGCUAGACUGCC, the self-cleavage amounted to 0.02.
Consider GUCGGAGCUCAACACAGCGUGAAAAAGUGGCUGUGGCUAGAAUGCC, for which the self-cleavage is 0.21.
Take GUCAGCGCUCAUCACAGCGUGGCAAAGUGGCUGUGGGUAUACAGCC: the self-cleavage is 0.
With GUCAGAGCUCAACACAGCGUGGCACAGUGGCUGUGGCUAGAUUGCC, the self-cleavage amounted to 0.01.
The value for GUCAGAGCUCUACUCAGCUUGGCAACGUGGCUGUGGCUAGACUGCC was 0; that for GUCGGAGCUCAACACAGCGUUGCAAAGUGGCUGUGGCUAGAGUGCC was 0.01; that for GUCAGAGCUCACCGCAGCGUGGCAAUGUGGCUGUGGCUAGACUGCC was 0.02.
On to GUCAGGGCUCAACACAGCGUGGCAACCUGGCUGUAGCUAGACUGCC, for which the self-cleavage turned out to be 0.27.
The value for GUCAGAGCUCAACACAGCGUGGCAUAGUGGCUGUGGCUACACUGCC was 0.05; that for GUCUGAGCUCAACACACCGUGGCAAAGUGGCUGUGUCUAAAUUGAC was 0.02; that for GUCAGGUCUCAAAACAACGUGGCAAAGUGGCUGUGGUUAGACUGCC was 0.03.
As for GUCAGAGCUCAACACAGCGUGGCACAGUGGCUGUGGCUAGUCUGCC, the self-cleavage was determined as 0.04.
Regarding GUAAGAGCUUAACACAGGGUGGCAAAGUGGCUGUGGCUAAACUGCC, the self-cleavage amounted to 0.01.
As to GUCAGAGCUCUACACAGCGUGCCAAGGUGGCUGUGGCUAGACCGCA, the self-cleavage came to 0.
As for GUCAGAGCUCAACCCAGCGUGGCUAAGUGGCUGUGGCUAGACUGCC, the self-cleavage worked out at 0.04.
As to GUCAGAGCUCAACACCACGUGGCAAAGUGGCUGUGGCUAUACUGCC, the self-cleavage is 0.11.
Regarding GUCUGAGCUCAACACAGCGCGGCAGAGUGGCUGUGGCUAGACUGCC, the self-cleavage was 0.
In the case of GUCAGGGCUCAACACAGCGUGCCAAUGUGGCUCUGGCUAGACUGCC, the self-cleavage turned out to be 0.01.
As to GUCAGAGCUCACCACAGCGUGGCAAUGUGGCUGUUGCUAGACUGCC, the self-cleavage stood at 0.
With GUCUGAGCUCACUACAGCGUGACAAAGUGGCUGUGGCUAGACUGCC, the self-cleavage is 0.03.
As for GUCAGAGCUCUACACGGCGUGGCAAAGUUGCUGUGGCUAGACUGCC, the self-cleavage is 0.03.
As to GUCAGAGCUCAACACGGCGUCGCAAAGUCGCUGUGGCUAGACUGCC, the self-cleavage stood at 0.02.
With GUCAGAGCUCCACACAGCUUGGCAAGGUGGCUGUUGCUAGACUGCC, the self-cleavage was 0.01.
As to GUCAGAGCUCGACACCGCGUAGCAAUGUGGCUAUGGCUAGACUGCC, the self-cleavage was 0.01.
For the variant GUGAGAGCUCAACACAGCGUGGCAAAGUGGCUGUUGCUAGACUGCC, the self-cleavage came out at 0.02.
Regarding GUCUGAGCUCAACACAGCGUGUCAAGGUGUCUGUGGCUAGACUGCC, the self-cleavage was 0.02.
Regarding GUCAGAGCUCAACACAGCGUGGCAACGUGGCUGUGGCUAGACUGCG, the self-cleavage is 0.09.
As for GUAAUAGCUCAACACAGCGUGGCAAAGUGGCUGUGGCUAUACUGCC, the self-cleavage turned out to be 0.12.
Regarding GUCAGAGCUCAACCCAGCGUGGCAAAGUGGCUGUGACUAGACUGCC, the self-cleavage was determined as 0.
Consider GUCAGAGCUCGACACAGCGUGACAAAGUGGCUUUGGCUAGACUGCC, for which the self-cleavage came to 0.01.
For GUCUGAGAUCAACAUAGCGUGGGAAAAUGGCUGUGGCUAGACUGCC the value was 0.24; for GUCAGGGCUCAACACAGCGUCGCAAAGUGGCUGUGGCUAGACUGCC, 0.03.
Take GUCAGAGCUCAACACAGCGUGGCAGAAUGGUUGUGGCUAGACUGCC: the self-cleavage is 0.04.
As to GUCAGAGCUCAACCCAGCGUGGCAAAGUGGCUGUGGCUACACUGCC, the self-cleavage turned out to be 0.03.
For GUCAGAGCUCGGCACAGCGUGGCAAAGUGGCUGUGGCUAGACUGCC the value was 0.01; for GUCAGAGCUCACCACAACGUGCCAAAGUGGCUGUGGCUAGACUGCC, 0.01.
Regarding GUCGGAGCUCAACACAGCGUCCCAAAGUGGCUGUGGCUAGACUGCC, the self-cleavage was found to be 0.02.
For GUCAGAGCUCAACACAGCGUGGCCAAGUGCCUCUGGCUAGACUGCC the value was 0.
